Measurements as given in PubChem BioAssay AID686978 (National Center for Advancing Translational Sciences (NCATS), 2013).
The whole screen tested about 420,000 compounds, of which about 64,000 (15%) were called active. Inconclusive means that the source gave no clear call. Such entries were picked first, then a sample of the others. The call rests on the fitted dose curve; in most records, active means well fitted inhibition curve with a large enough effect; inconclusive means small, poorly fitted or top-dose-only effect; inactive means flat fitted curve, though single readings scatter. No potency is given beside an inconclusive call; the fits are too rough.

Assay: qHTS for Inhibitors of human tyrosyl-DNA phosphodiesterase 1 (TDP1): qHTS in cells in absence of CPT; further: nearly all actives have a fitted effect of over 55% in size
Settings: DT40 Tdp1-/- hTDP1 cells, no CPT, ATP luminescence, 48 h; activity change, negative = growth inhibition: at 46.2 µM (top of the series)
Outline: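 Stably hTDP1-transfected Tdp1-null chicken DT40 cells were treated with library compounds minus camptothecin and grown for at least 48 hr at 37 °C, after which cellular ATP was quantified by luminescence.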
On the % scale 0 is the no-effect control and ±100 the full control effect; potency means the concentration at half of the fitted maximal effect; tags describe the fitted curve by direction and shape.

| SMILES | Potency | activity change, negative = growth inhibition |
| --- | --- | --- |
| CCCN(CCC)C(=O)C1CCCN(c2ncnc3onc(-c4ccc(F)cc4)c23)C1 (stereo unspecified) | active: 16.4 µM |  |
| CCC(=O)N1CCN=C1SCc1cccc(C(F)(F)F)c1 | inconclusive [inhibitor, single point] |  |
| Cc1ccc(NC(=O)COC(=O)c2ccc(Cl)cc2)cc1S(=O)(=O)N(C)C | inconclusive [inhibitor, partial curve] |  |
| CCCN(CCC)C(=O)c1cn(CC)c2ccc(S(=O)(=O)N3CCCCC3)cc2c1=O | inactive |  |
| O=C(NCCCO)C(=O)Nc1c2c(nn1-c1ccccc1)CSC2 |  | inactive: -4.47% |
| CCN(C(=O)c1ccc(S(=O)(=O)N(C)C)cc1)C(C)C(=O)Nc1ccc(C)cc1 (stereo unspecified) |  | inactive: -40% |
| COc1ccccc1N1CCN(CC(O)COCCOc2ccc(Br)cc2)CC1 (stereo unspecified) | inconclusive [inhibitor, partial curve, poor fit] |  |
| COc1cc([C@@H]2c3cc4c(cc3[C@@H](O)[C@H]3COC(=O)[C@H]23)OCO4)cc(OC)c1O[Si](C)(C)C(C)(C)C | active: 14.6 µM |  |
| COc1ccc(Nc2ncnc3ccccc23)cc1 | inconclusive [inhibitor, partial curve] |  |
| Cc1ccc(C(=O)NCc2ccc(N3CCN(C(=O)OC(C)(C)C)CC3)cc2)cc1 | inconclusive [inhibitor, full curve] |  |
| CCOc1cc(N2CCOCC2)c(OCC)cc1NC(=O)c1cc(C)nc2ccccc12 | active: 14.6 µM |  |
| C=CC[C@@H](CC(=O)NCCO)C(=O)N[C@@H](C)COC(=O)[C@@H](CC=C)Cc1ccc(F)cc1 |  | inactive: -1.94% |
| NC(=O)c1cc(C(=O)c2ccc(Cl)cc2Cl)c[nH]1 | inconclusive [inhibitor, partial curve] |  |
| COc1cc(OC)c2c(c1)O/C(=C\c1ccccc1)C2=O | inconclusive [inhibitor, single point] |  |
| Fc1ccc(C2=NNC(=NCc3ccccc3)SC2)cc1F | inconclusive [inhibitor, single point] |  |
| COc1ccccc1N(CC(=O)NC(C)C)S(=O)(=O)c1cccs1 | inconclusive [inhibitor, single point] |  |
| COc1cc(-c2nnc(-c3cccs3)o2)cc(OC)c1OC | inconclusive [inhibitor, single point] |  |
| CC1=CC(C)(C)NC(=S)N1c1ccccc1 | inconclusive [inhibitor, single point] |  |
| CCc1ccc(NC(=O)CSc2nc3c(sc4ccccc43)c(=O)n2CCN(CC)CC)cc1 | active: 9.2 µM |  |
| O=C(c1cnn(-c2ccc(Cl)cc2)c1)c1ccccc1O |  | inconclusive: -31.1% [inhibitor] |
| COC1=C(Nc2ccccc2OC)C(=O)c2ccccc2C1=O | inconclusive [inhibitor, single point] |  |
| Cc1cn2c(=O)cc(COC(=O)c3ccccc3F)nc2s1 |  | inactive: -0.855% |
| Cc1noc(C)c1COc1ccc(C(=O)Nc2ncccc2O)cc1 | inconclusive [inhibitor, single point] |  |

| SMILES | Potency | activity change, negative = growth inhibition |
| --- | --- | --- |
| Cc1c(NC(=O)OC(C)C)sc(=S)n1C |  | inactive: -8.19% |
| O=C1c2ccc([N+](=O)[O-])cc2C(=O)N1CNc1ccccn1 |  | inactive: -21.8% |
| CC(C)Cn1c(C(C)C)nc([N+](=O)[O-])c1Sc1ccc(Cl)cn1 | inconclusive [inhibitor, single point] |  |
| CCN1C(=O)[C@@H]2[C@@H](c3ccc(-c4ccccc4)cc3)N3CCCC[C@@]3(C(=O)OC)[C@@H]2C1=O | active: 16.4 µM |  |
| COc1cc(C(=O)NCC(=O)OCC(=O)Nc2nnc(-c3ccccc3)o2)cc(OC)c1OC |  | inactive: 7.31% |
| O=C(COc1ccccc1F)Nc1c2c(nn1-c1ccccc1)CS(=O)(=O)C2 |  | inactive: 13.1% |
| CNc1cncc(-c2ccc(OCCCN(C)C)nc2)n1 |  | inactive: 4.88% |
| COc1ccc(CN(C(=O)c2ccco2)c2ccc(C)c(C)c2)cc1 | inconclusive [inhibitor, single point] |  |
| Fc1ccccc1N1CCN(Cc2nc(-c3ccccc3)no2)CC1 |  | inactive: -16% |
| COc1ccc(CCNC(=O)Cn2c(-c3nonc3N)nc3ccccc32)cc1OC |  | inconclusive: -34.3% [inhibitor] |
| O=C(Nc1ccon1)c1ccc(N2CCCCC2)c([N+](=O)[O-])c1 | inconclusive [inhibitor, single point] |  |
| Cc1cc(C)cc(NC(=O)CCCc2nnc3n(CC(C)C)c(=O)c4sccc4n23)c1 | inconclusive [inhibitor, partial curve] |  |
| CC(NS(=O)(=O)c1c(N)n(C)c(=O)n(C)c1=O)c1ccccc1 (stereo unspecified) | inconclusive [inhibitor, single point] |  |
| O=c1[nH]c2cc3c(cc2cc1C(c1nnnn1Cc1ccccc1)N1CCCCCC1)OCCO3 (stereo unspecified) | inconclusive [inhibitor, partial curve] |  |
| C=C(C)Cn1c(SCC(=O)N/N=C/c2cccc(O)c2)nc2ccccc2c1=O | inconclusive [inhibitor, partial curve] |  |
| C/C=C\C=C/C(=O)Nc1cccc(C2=NOC3(C2)C[C@@H](C(N)=O)N(C(=O)/C=C/C=C\C)C3)c1 (stereo partly specified) |  | inactive: 0.293% |
| CC(=O)Nc1cccc(NC(=O)CSc2nccn2Cc2ccco2)c1 | inconclusive [inhibitor, single point] |  |
| COc1cc2c(cc1OC)C(c1ccccc1N)=NCC2 | active: 20.6 µM |  |
| COc1ccc(NC(=S)Nc2ccc(C)c(Cl)c2)cc1OC |  | inactive: -26.4% |
| CCOC(=O)c1cc(C(C)(C)C)oc1CN | inconclusive [inhibitor, single point] |  |
| COc1ccc(CC(=O)N2CCC(Nc3nc4ccccc4n3Cc3ccc(F)cc3)CC2)cc1 | inconclusive [inhibitor, single point] |  |
| CCOc1ccc(-c2nnc(SCC(=O)c3ccc(F)cc3)n2-c2ccccc2)cc1 | inconclusive [inhibitor, partial curve] |  |
| Cc1ccc(S(=O)(=O)C(CNC(=O)COc2ccc(Cl)cc2)c2ccco2)cc1 (stereo unspecified) | inconclusive [inhibitor, single point] |  |
